Results reported in PubChem BioAssay AID686979 (National Center for Advancing Translational Sciences (NCATS), 2013).
The whole screen tested about 420,000 compounds, of which about 50,000 (12%) were called active. This list was built around the results that the source calls inconclusive (neither active nor inactive); the mix of calls is not that of the screen. Calls follow the shape of the dose curve; as a rule, active = well fitted inhibition curve with a large enough effect; inconclusive = small, poorly fitted or top-dose-only effect; inactive = flat fitted curve, though single readings scatter. No potency is given beside an inconclusive call; the fits are too rough.

Assay: qHTS for Inhibitors of human tyrosyl-DNA phosphodiesterase 1 (TDP1): qHTS in cells in presence of CPT; also: nearly all actives have a fitted effect of over 55% in size
Conditions: chicken DT40 Tdp1-/-;hTDP1 cells + 20 nM CPT, ATP luminescence, 48 h; activity change, negative = growth inhibition: at 46.2 µM (top of the series) unless noted
Procedure, shortened: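 Chicken DT40 Tdp1-/- cells complemented with human TDP1, 400 cells/well, exposed to compounds plus 20 nM camptothecin for at least 48 h at 37 C; viability read as ATP content by CellTiter-Glo luminescence.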
% is scaled to controls: 0 for no effect and ±100 for the full control effect; potency is read from the fitted curve at half-maximal effect; tags tell the direction and shape of the fitted curve.

Row | SMILES | activity change, negative = growth inhibition | Potency
1 | O=C1NC[C@H](CCCCN2CCN(CCc3ccccc3)C(=O)C2=O)N(Cc2ccccc2)C1=O | inactive: 1.15% | –
2 | COC(=O)c1cccc(NCN2C(=O)c3ccccc3C2=O)c1 | inactive: -11.5% | –
3 | CCOC(=O)c1cnc2ccc(F)cc2c1Nc1ccc2c(c1)OCCO2 | inconclusive: -31.8% [inhibitor] | –
4 | Cc1ccc(Oc2cc(NC(=O)CCCn3nc([N+](=O)[O-])cc3C)cc([N+](=O)[O-])c2)cc1 | – | inconclusive [inhibitor, single point]
5 | CN(C)C(=O)c1ccc(-c2ccc3ncnc(N(C)Cc4ccco4)c3c2)cc1 | – | active: 5.8 µM
6 | COc1ccccc1NS(=O)(=O)c1ccc(C)c(C(=O)NCC2CCCO2)c1 (configuration not stated) | inactive: -0.593% | –
7 | CC1(C(=O)N2CCN(C(=O)c3ccco3)CC2)CCN1Cc1ccccc1OC(F)F (configuration not stated) | inactive: -0.474% | –
8 | O=C1C=CC(=O)N1c1cccc2cccnc12 | – | active: 16.4 µM
9 | COCCOC(=O)c1c(NC(=O)CN2CCCc3ccccc32)sc(C(N)=O)c1C | – | inconclusive [inhibitor, single point]
10 | CCCCNC(=O)/C(C#N)=C/c1ccc(F)cc1F | – | inconclusive [inhibitor, single point]
11 | CCc1ncc(CN2CCC(C(=O)Nc3cccc(-c4cscn4)c3)CC2)cn1 | – | inconclusive [inhibitor, single point]
12 | Clc1ccccc1-c1nnc(-c2ccc3c(c2)OCO3)o1 | – | inconclusive [inhibitor, partial curve]
13 | O=C(COC(=O)C12CC3CC(CC(C3)C1)C2)Nc1ccc([N+](=O)[O-])cc1Br | – | inconclusive [inhibitor, single point]
14 | O=[N+]([O-])c1cccnc1Sc1n[nH]c(-c2ccc(Cl)cc2)n1 | inactive: -8.7% | –
15 | CC(=O)c1ccc(N2CCN(C(=O)C3CCN(S(=O)(=O)c4cccc5nonc45)CC3)CC2)cc1 | – | inconclusive [inhibitor, single point]
16 | COc1ccccc1N1CCN(C(CNC(=O)C2CCCCC2)c2cccnc2)CC1 (configuration not stated) | – | active: 8.2 µM
17 | Cc1cc(C)c(NC(=O)CS)c(Cl)c1 | – | inconclusive [inhibitor, single point]
18 | O=C(Nc1cccc([N+](=O)[O-])c1)C12CC3CC(C1)CC(n1cnc([N+](=O)[O-])n1)(C3)C2 | – | active: 25.9 µM
19 | O=C(CN1C(=O)C(=O)N(C2CCCC2)C1=O)Nc1cc(Cl)ccc1[N+](=O)[O-] | inactive: -11.2% | –
20 | Cc1ncc(CO)c(/C=N/NC(=O)c2cccc(S(=O)(=O)N3CCCC3)c2)c1O | – | inconclusive [inhibitor, single point]
21 | COc1ccc(C=O)c(-c2c(-c3ccccc3OC)sc3ccccc23)c1 | – | inconclusive [inhibitor, single point]
22 | OC(c1ccc(F)c(F)c1)c1nc(-c2ccc3ccccc3c2)cs1 (configuration not stated) | – | inconclusive [inhibitor, single point]
23 | O=S(=O)(c1cccc(Br)c1)N1CCN(c2ncnc3scc(-c4ccccc4)c23)CC1 | – | inconclusive [inhibitor, single point]
24 | Cn1cc(C(=O)NCc2cccs2)c(=O)c2cc(S(=O)(=O)N3CCCC3)ccc21 | – | inconclusive [inhibitor, single point]

Row | SMILES | activity change, negative = growth inhibition | Potency
25 | COc1cc(NC(=O)c2cccs2)c(C(=O)OCC(=O)NC(=O)NCc2ccccc2)cc1OC | – | inconclusive [inhibitor, partial curve]
26 | CCOCc1c(C(=O)NCc2ccccc2CN2CCCC2)oc2ccccc12 | – | inconclusive [inhibitor, single point]
27 | Nc1[nH]c(C(=O)c2ccccc2)c(-c2ccc(Br)cc2)c1C(=O)c1cccs1 | inactive: -23.5% | –
28 | CCOc1ccccc1NC(=O)Cn1c(=O)ccc2cc(S(=O)(=O)N3CCC(C)CC3)ccc21 | – | inconclusive [inhibitor, single point]
29 | O=C(CN(C(=O)c1csnn1)c1ccc(Br)cc1)NC1CCCC1 | inactive: 3.35% | –
30 | COc1ccc(Cc2nc3ccc(C(=O)NC(C)Cc4ncccc4C)cc3o2)cc1OC (configuration not stated) | – | active: 18.4 µM
31 | Cc1ccc(CNC(=O)CCCc2cn(C)c3ccccc23)cc1 | – | inconclusive [inhibitor, single point]
32 | Cc1cc(C)c(C#N)c(Nc2cccc(C)c2C)n1 | inactive: 0.373% | –
33 | Clc1ccc2nc(-c3ccccc3)nc(C(Cl)Cl)c2c1 | – | active: 0.164 µM
34 | Cc1ccc(OCCCn2c(C3CC(=O)N(c4cccc(Cl)c4)C3)nc3ccccc32)c(C)c1 (configuration not stated) | inactive: -99.7% | –
35 | CCOC(=O)C1CCN(C(=O)C2COc3ccccc3C2)CC1 (configuration not stated) | inactive: 0.265% | –
36 | COCC(=O)N/N=C\c1ccccc1OC/C=C/c1ccccc1 | – | inconclusive [inhibitor, single point]
37 | O=C1/C(=C/c2cccnc2)Sc2ccccc21 | – | active: 25.9 µM
38 | Cc1nc(N)sc1-c1csc(Nc2ccc(Cl)cn2)n1 | – | inconclusive [inhibitor, single point]
39 | COc1ccc(-c2cnc(C)o2)cc1S(=O)(=O)Nc1ccc(C)c(F)c1 | – | active: 2.59 µM
40 | Cc1ccccc1C(=O)OCC(=O)Nc1cccc(S(=O)(=O)NC2=NCCC2)c1 | inactive: 2.09% | –
41 | Cc1ccc(CN2CCSc3ccc(C(=O)N4CCN(c5cccc(C)c5C)CC4)cc32)cc1 | – | active: 8.2 µM
42 | CN1/C(=C\C=C2/C(=O)Oc3ccccc3C2=O)C(C)(C)c2ccccc21 | – | inconclusive [inhibitor, partial curve]
43 | CC(=O)NC(C)Cc1cn(Cc2ccccc2)c2ccccc12 (configuration not stated) | – | inconclusive [inhibitor, single point]
44 | Clc1ccc2nc(-c3ccccn3)c(Nc3ccc4c(c3)OCO4)n2c1 | – | inconclusive [inhibitor, single point]
45 | COc1ccc(OC)c2c1cc(C(=O)N[C@H](C(=O)N1CCC[C@H]1C(=O)O)C(C)C)n2C | inactive: -15.9% | –
46 | Cn1c(=O)c2c(nc(N3CCCCC3)n2C)n(C)c1=O | inactive: -2.21% | –
47 | c1ccc(CSc2ncccn2)cc1 | inactive: -3.28% | –
